Several values for one entry are separate records, joined by “and”; a condition that tells them apart may be missing. Equal values may be shown once.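 Values below derive from 48-hour exposures of cells grown in 96-well plates, with endpoints linearly interpolated between the two concentrations bracketing the appropriate inhibition level. Here, GI50 denotes the concentration required for 50% inhibition of growth. TGI: total growth inhibition.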

The results in this text go back to PubChem BioAssay (NCI).

The experiment relates to NCI-H322M lung. In words: DTP human tumour cell line panel, 48 h.
In turn, `CC1=C(O)C(=O)[C@@H]2O[C@@H]2C1=O` displayed a TGI of 78.1 µM. The molecule `OCCC1(O)CCC(O)CC1` (centres undefined) returned a TGI greater than 100 µM. For `CCCCC(=O)OCC1OC(n2cnc3c(=S)nc[nH]c32)C(OC(=O)CCCC)C1OC(=O)CCCC` (centres undefined), the GI50 was 4.84 µM and the TGI was greater than 100 µM. `COC(=O)C(CCC#N)(CCC#N)C(=O)OC` returned a TGI greater than 100 µM. Regarding `S=C(N/N=C\C=N/NC(=S)N1CCCCC1)N1CCCCC1`, the TGI is greater than 100 µM. As to `O=C(c1ccco1)c1nc2ccc(C(F)(F)F)cc2[n+]([O-])c1C(F)(F)F`, the GI50 was 58.4 µM and the TGI is greater than 100 µM.

In the case of `CSc1cc(N=Nc2nc3ccccc3s2)c2ccccc2c1O`, the GI50 is 13.3 µM and the TGI was 25.8 µM.

On to `Cc1ccc2c(c1)C(=O)/C(=C/c1ncc([N+](=O)[O-])n1C)O2`, for which the GI50 was 10.2 µM and the TGI was 46.2 µM. `COC(=O)C[C@H]1CCC2(OCCO2)[C@]1(C)C(=O)OC` displayed a TGI greater than 100 µM.

With `CCCCCCCCCCCCCC(=O)OC1CC(=O)OC1CO` (centres undefined), the TGI was greater than 100 µM. Molecule `O=C(/C=C/c1ccc(O)c([N+](=O)[O-])c1)CC(=O)/C=C/c1ccc(O)c([N+](=O)[O-])c1` gave a TGI greater than 100 µM. As to `COc1cc(OC)cc(-c2ccc(-c3ccc(C(=N)N)o3)o2)c1`, the GI50 is 2.86 µM and the TGI stood at 9.57 µM. As for `CCOC(=O)/C=C(/C(=O)OCC)n1cc(Cl)c(=O)n(CC(=O)OCC)c1=O`, the TGI was > 25 µM and 35.4 µM.

Molecule `O=C1CNCCCN2CCN(CCCNCC(=O)Nc3ccc(cc3)S(=O)(=O)c3ccc(cc3)NC(=O)CNCCCN3CCN(CCCNCC(=O)Nc4ccc(cc4)S(=O)(=O)c4ccc(cc4)N1)CC3)CC2` returned a TGI greater than 100 µM.

Molecule `COC(=O)CC(=O)C[P+](c1ccccc1)(c1ccccc1)c1ccccc1` displayed a TGI greater than 218 µM. In the case of `Cc1ccc(S(=O)(=O)N(CCOc2ccc(/C(N)=N/Cl)cc2)CCOc2ccc(/C(N)=N\Cl)cc2)cc1`, the GI50 is 67.9 µM and the TGI was greater than 100 µM.

Take `CCN1CC2=C(NC(=S)NC2c2ccc(Cl)cc2)/C(=C/c2ccc(Cl)cc2)C1` (centres undefined): the TGI is greater than 100 µM. `Clc1ccc(C2N3CCCCC3[C@@H]3c4[nH]c5ccccc5c4CCN23)cc1` (some centres undefined): the TGI was greater than 100 µM. For `N#CSCC1CC(O)(c2ccccc2)C(c2ccccc2)C(c2ccc(Cl)cc2)O1` (centres undefined), the GI50 was 2.24 µM and the TGI is 7.77 µM. The like results for `CC[CH2][Pb]([CH2]CC)([CH2]CC)[O]C(=O)C(F)(F)F` were, in that order, 0.201 µM and 0.517 µM.

Molecule `CCOC(=O)c1csc(NC(=O)CCN(CC)CC)n1` yielded a TGI greater than 100 µM. As to `N=C1CSC2=NC3=C(CCC/C3=C\c3ccccc3)C(c3ccccc3)N12` (centres undefined), the TGI stood at 22.6 µM. As for `CC(C)CC(=O)[O-].CC(C)CC(=O)[O-].N.N.N.N.[Co+3].[O-][Cl+3]([O-])([O-])[O-]`, the GI50 was greater than 100 µM and the TGI was greater than 100 µM.

Regarding `C=C(C)C12CC(COC(=O)c3ccccc3)C34OC5(OC1C3C1OC1(CO)C(O)C1(O)C(OC(=O)c3ccccc3)C(C)C(C(C)CCCCCCC5O)C14)O2` (centres undefined), the TGI was greater than 100 µM.

For the molecule `CN(C)CCCOc1nc2c(c(=O)n(C)c(=O)n2C)n1C` (tested in a mixture with another compound), the TGI was greater than 100 µM. Molecule `COc1ccc(-n2c(=O)c3[nH]cnc3n(-c3ccc(OC)cc3)c2=S)cc1` displayed a TGI greater than 100 µM. `O=C(O)CSc1nnc(COc2ccc(Cl)cc2)n1-c1ccccc1` gave a TGI greater than 100 µM. `CC(C)Sc1nc(C#N)cc2c1CCCC2` returned a TGI greater than 100 µM. `O=c1nc(N2CCN(c3ccccc3)CC2)ccn1C1OC(CO)C(O)C1O` (centres undefined) yielded a TGI greater than 100 µM.

In the case of `O=C1/C(=C/c2ccccc2)N=C(c2ccccc2)N1n1c(-c2ccccc2)nc2ccccc2c1=O`, the TGI is greater than 100 µM. For the molecule `C[C@]12CC[C@H](O)CC1=CC[C@@H]1[C@@H]2CC[C@]2(C)C(c3cccnc3)=CC[C@@H]12`, the GI50 was greater than 100 µM and the TGI is greater than 100 µM.

The molecule `CN(CCC#N)c1ccc(/C=C2\SC(=S)NC2=O)cc1` showed a TGI greater than 100 µM. Still for that read-out and setting: for `Cc1nc(-c2ccc([N+](=O)[O-])cc2)cn2c1nc1ccccc12` the value was greater than 100 µM. `Cc1cc(I)cc(CNCCCN2CCSCC2)c1O`: the GI50 was 17.9 µM and the TGI worked out at 36.4 µM. On to `COc1cc(-c2cc(=O)c3cc4c(cc3[nH]2)OCO4)cc(OC)c1O`, for which the TGI is greater than 10 µM. On the same count and under the same terms, the value for `C[N+]1=C2[B-](C(C)(C)C)=[N+](C(C)(C)C)[B-]2(C(C)(C)C)[N+](C)=C2[B-](C(C)(C)C)=[N+](C(C)(C)C)[B-]21C(C)(C)C` (centres undefined) was greater than 100 µM.

On to `COCOC1/C=C/CCCCC2=C(C)C=C(C1)O2` (centres undefined), for which the TGI is greater than 100 µM.

Regarding `CC1(C)CC(/C=C2/OC(=O)c3ccccc32)=C(C#N)C(=O)O1`, the TGI was greater than 100 µM.
